In PubChem BioAssay AID1461 (National Center for Advancing Translational Sciences (NCATS), 2008):
About 2,300 (1%) of roughly 220,000 compounds were called active. The inconclusive results got no clear call from the source; some entries with a clear call stand among them for comparison. Calls follow the shape of the dose curve; as a rule, active = well fitted inhibition curve with a large enough effect; inconclusive = small, poorly fitted or top-dose-only effect, or effect the other way; inactive = no such curve, though single readings can be large or run the other way. No potency is given beside an inconclusive call; the fits are too rough.

What follows are compounds tested against Neuropeptide S receptor (Homo sapiens) (UniProt Q6W5P4) (assay: qHTS Assay for Antagonists of the Neuropeptide S Receptor: cAMP Signal Transduction). Conditions: CHO-NPSR cells, cAMP TR-FRET, antagonist mode; activity change, negative = inhibition: at 38.3 µM (top of the series) unless noted.
UniProt Q6W5P4, sequence (Q6W5P4 whole entry, looked up): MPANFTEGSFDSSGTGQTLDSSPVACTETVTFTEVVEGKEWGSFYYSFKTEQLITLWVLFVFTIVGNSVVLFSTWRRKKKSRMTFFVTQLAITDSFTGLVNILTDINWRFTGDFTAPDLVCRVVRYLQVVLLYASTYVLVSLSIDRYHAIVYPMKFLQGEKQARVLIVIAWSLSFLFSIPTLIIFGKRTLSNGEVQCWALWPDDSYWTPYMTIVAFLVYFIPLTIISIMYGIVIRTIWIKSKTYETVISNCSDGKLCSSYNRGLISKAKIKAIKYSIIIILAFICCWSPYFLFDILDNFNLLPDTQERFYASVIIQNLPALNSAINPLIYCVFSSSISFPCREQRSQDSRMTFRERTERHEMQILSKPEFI
% is scaled to controls: 0 for no effect and ±100 for the full control effect; potency is read from the fitted curve at half-maximal effect; tags tell the direction and shape of the fitted curve.
Also: nearly all actives have a fitted effect of over 50% in size.

| Compound | Potency | activity change, negative = inhibition |
| --- | --- | --- |
| CCOC(=O)N1CCC(n2c(SCC(=O)NCCC3=CCCCC3)nc3ccccc3c2=O)CC1 | inconclusive [inhibitor, partial curve] |  |
| c1ccc(-c2nnc3sc(-c4cc5ccccc5o4)nn23)cc1 | inconclusive [inhibitor, partial curve, poor fit] |  |
| CN(C)c1cc(Nc2ccc(O)cc2)c([N+](=O)[O-])c2nonc12 |  | inactive: -22.8% |
| CCCCNC(=O)CSc1nc2ccccc2c(=O)n1C1CCCC1 | inconclusive [inhibitor, partial curve] |  |
| N#C/C(Cn1c[n+](NC(=O)Nc2ccccc2)cn1)=N/O | inconclusive [activator, partial curve] |  |
| O=C(Nc1ccc(Cl)cc1)N1CCC(c2nc(-c3ccccc3Cl)no2)CC1 | inconclusive [inhibitor, single point] |  |
| C=C(C)COc1ccc(-c2nc(N)ncc2-c2ccccc2OC)c(O)c1 | inconclusive [activator, partial curve] |  |
| CCOc1ccc(-n2c(SCC(=O)NCc3ccco3)nnc2-c2c[nH]c3ccccc23)cc1 | active: 12.6 µM |  |
| COC(=O)CSc1nnc2n(-c3ccc(OC)cc3)c(=O)c3c4c(sc3n12)CCCCC4 | inconclusive [inhibitor, partial curve] |  |
| Cc1ccc(-n2c(C)cc(C(=S)N3CCOCC3)c2C)cc1C | inconclusive [inhibitor, single point] |  |
| O=C(CCS(=O)(=O)CCN1CCOCC1)NCNC(=O)CCS(=O)(=O)CCN1CCOCC1 |  | inactive: 3.94% |
| O=C(NC1=NCCS1)c1cc(-c2cccnc2)nc2ccccc12 |  | inactive: 8.71% |
| Cc1cc(C)n(-c2nc3sc4c(c3c3nnc(SCC(N)=O)n23)CC(C)(C)OC4)n1 |  | inactive: -4.95% [at 46.1 µM] |
| CCCCCN1C=CC=C/C1=C\C=C(C#N)C#N | inconclusive [activator, full curve] |  |
| Cc1ccc(C(=O)c2cnc3ccccc3c2-c2ccccc2)cc1 | inconclusive [inhibitor, single point] |  |
| C/C(=C\C(=O)c1ccccc1)Nc1ccc(O)cc1 |  | inactive: -8.32% [at 46.1 µM] |
| Cc1cc(NC(=S)N(CCN2CCCCC2)Cc2ccco2)ccc1Cl | inconclusive [inhibitor, full curve, poor fit] |  |
| c1ccc2c(c1)CCN(c1ncnc3c1[nH]c1ccccc13)C2 | inconclusive [inhibitor, single point] |  |
| CCOC(=O)c1cnn(-c2ccc(C(C)C)cc2)c1NC(=O)C1CCC1 | inconclusive [inhibitor, single point] |  |
| O=C1/C(=C/c2ccncc2)Oc2cc(OS(=O)(=O)c3ccccc3)ccc21 | inconclusive [inhibitor, single point] |  |
| c1ccc(OCc2nn3c(Cn4nnc5ccccc54)nnc3s2)cc1 |  | inactive: -13.4% [at 46.1 µM] |
| CCOc1ccc(/C=N/NC(=O)C(C)N(c2ccc(OC)cc2)S(C)(=O)=O)cc1OCC (configuration not stated) |  | inactive: 18.4% |
| CCCN(CCC)S(=O)(=O)c1cccc(C(=O)Nc2ccc3c(c2)OCO3)c1 | inconclusive [inhibitor, partial curve] |  |

| Compound | Potency | activity change, negative = inhibition |
| --- | --- | --- |
| CC1CC(N(C(=O)c2ccco2)c2ccccc2)c2ccccc2N1C(=O)c1ccco1 (configuration not stated) | inconclusive [inhibitor, partial curve, poor fit] |  |
| Cc1oc2c(c1C(=O)c1ccccc1)C(=O)C(=O)c1ccccc1-2 | inconclusive [inhibitor, single point] |  |
| CCOC(=O)C(C)On1c(-c2ccc(Cl)cc2)nc2ccc([N+](=O)[O-])cc21 (configuration not stated) | inconclusive [inhibitor, single point] |  |
| Cc1cc([N+](=O)[O-])ccc1NCc1ccccc1[N+](=O)[O-] |  | inactive: -23.7% |
| O=C1C(=O)N(CC(=O)N2CCCC2)c2ccccc21 |  | inactive: 16.7% |
| NNc1nc(-c2ccccc2)cc(-c2ccccc2O)n1 | inconclusive [inhibitor, full curve, poor fit] |  |
| CC(Sc1nc2ccccc2n1C)C(=O)NC(c1ccccc1)c1ccccc1 (configuration not stated) | inconclusive [inhibitor, full curve] |  |
| O=[N+]([O-])c1ccc(/C=N/NC(=S)Nc2ccccc2F)o1 |  | inactive: 9.62% |
| COc1ccccc1N1CCN(C(=O)CSc2nc(-c3ccco3)cc(C(F)(F)F)n2)CC1 | inconclusive [inhibitor, single point] |  |
| CCCC(=O)Nc1sc2c(c1C(=O)Nc1ccccn1)CCCC2 | inconclusive [activator, partial curve] |  |
| Cc1cc2nnn(-c3nnc(-c4ccccc4)c4ccccc34)c2cc1C | inconclusive [inhibitor, single point] |  |
| CCOC(=O)c1c(NC(=O)COC(=O)Cn2c(C(F)(F)F)nc3ccccc32)sc(C)c1C | inconclusive [inhibitor, single point] |  |
| CCOC(=O)C1=C(N)Oc2cc(O)ccc2C1c1ccc([N+](=O)[O-])cc1 (configuration not stated) | inconclusive [activator, partial curve] |  |
| CCCCn1nc2cc(C(=O)NCC34CC5CC(CC(C5)C3)C4)ccc2c1OCC | inconclusive [inhibitor, single point] |  |
| c1ccc(Cn2c(CSc3nnnn3-c3ccccc3)nc3ccccc32)cc1 | inconclusive [inhibitor, single point] |  |
| CC(C)C(NC(=O)CC12CC3CC(CC(C3)C1)C2)C(=O)O (configuration not stated) | inconclusive [inhibitor, single point] |  |
| O=C(/C=C/c1ccc(-c2ccccc2[N+](=O)[O-])o1)c1ccc(Br)cc1 |  | inactive: -26.6% [at 46.1 µM] |
| CCOC(=O)c1cc(-c2ccc(Cl)cc2)nc2c1c(C)nn2CCC#N | inconclusive [inhibitor, partial curve] |  |
| Cc1cccc(-n2c(SCC(=O)N3CCCC3)nc3n[nH]c(C)c3c2=N)c1 | inconclusive [activator, partial curve] |  |
| COc1ccc(OC)c(N/C=C2/CCCCC2=O)c1 | inconclusive [activator, partial curve] |  |
| CNc1oc(-c2ccc(Cl)cc2)nc1P(=O)(c1ccccc1)c1ccccc1 | inconclusive [inhibitor, partial curve] |  |
| O=C(O)c1ccc(CNCc2cccc(Cl)c2Cl)cc1 | inconclusive [inhibitor, single point] |  |
| CCOc1cc(/C=C\c2[nH]c(=O)[nH]c(=O)c2[N+](=O)[O-])ccc1OC(C)CC (configuration not stated) | inconclusive [inhibitor, single point] |  |

| Compound | Potency | activity change, negative = inhibition |
| --- | --- | --- |
| Cc1noc(C)c1CSc1nc2ccccc2c(=O)n1-c1ccc(Cl)cc1 | active: 10 µM |  |
| Cc1ccc(Cn2c(N)c(S(=O)(=O)c3cccs3)c3nc4ccccc4nc32)cc1 | inconclusive [activator, single point] |  |
| N=c1n(CC(=O)c2ccc([N+](=O)[O-])cc2)c2ccccc2n1Cc1ccc(Cl)cc1 | inconclusive [inhibitor, single point] |  |
| Cc1occc1C(=O)N1CCN(c2ccc(Cl)c(Cl)c2)CC1 |  | inactive: -17.1% [at 46.1 µM] |
| COc1nc(/C(N)=N/O)nc(N2CCCCC2)n1 |  | inactive: -4.34% [at 46.1 µM] |
| O=C(NCc1ccco1)c1cccn2c(=O)c3cc4ccccc4cc3nc12 | inconclusive [inhibitor, single point] |  |
| Cc1cc(Cl)cc(Cl)c1OCCOc1cccc2cccnc12 | inconclusive [inhibitor, single point] |  |
| CCN(CC(=O)Nc1cccc(OC)c1)C(=O)c1ccc(C)s1 | inconclusive [activator, partial curve] |  |
| CC(/C=N/NC(=O)CSc1ccccn1)=C\c1ccc(C(C)C)cc1 |  | inactive: -23.8% |
| O=C(Nc1c(C(=O)Nc2cccc(F)c2)oc2ccccc12)c1ccc2c(c1)OCO2 | inconclusive [activator, single point] |  |
| CCSc1nc2sc3c(c2c(=O)[nH]1)CCc1ccccc1-3 | inconclusive [inhibitor, single point] |  |
| CCc1ccc(CN(C)CC(=O)Nc2ccccc2[N+](=O)[O-])cc1 | inconclusive [inhibitor, single point] |  |
| O=C(CN1CCN(c2ccc(O)cc2)CC1)NC(c1ccccc1)c1ccccc1 |  | inactive: -7.44% |
| CCCCn1nc2cc(C(=O)NCc3cc(C(F)(F)F)cc(C(F)(F)F)c3)ccc2c1OC | inconclusive [inhibitor, single point] |  |
| COc1cc(NS(=O)(=O)c2ccc(NC(=O)COc3ccc(C)cc3C)cc2)nc(OC)n1 | inconclusive [inhibitor, single point] |  |
| O=C(N/N=C1/C(=O)c2cccc3cccc1c23)c1ccc(Cl)cc1 | inconclusive [inhibitor, partial curve] |  |
| COC(=O)c1ccc2c(=O)n(CCCCCC(=O)NCc3ccc4c(c3)OCO4)c(=O)[nH]c2c1 | inconclusive [inhibitor, single point] |  |
| CCOCCCNC(=O)/C(C#N)=C/c1ccc(C(=O)OC)cc1 | inconclusive [inhibitor, single point] |  |
| CCOC(=O)c1cnc2ccccc2c1NCc1ccco1 | inconclusive [activator, partial curve] |  |
| CC(=O)c1ccccc1Oc1nc(CN2CCOCC2)nc2scc(-c3cccs3)c12 | inconclusive [inhibitor, single point] |  |
| COC(=O)C1=C(C(=O)OC)SC(=C2C(=S)C(C)(C)N(C(=O)C3CC3)c3ccccc32)S1 | active: 12.6 µM |  |
